Results reported in a collection of fitness landscapes (doi:10.1016/j.celrep.2020.107928).
In all, about 81,000 sequences were measured (“one-hybrid fitness for binding parS DNA”: median about -0.17, highest 2% from about 0.51 on). The list shows a part of the results.

B1: Caulobacter ParB omega fusion; a variant is named by its letters at X, in order, B8GW30 (parent)
chain: MESVVVGEPGMSEGRRGLGRGLSALLGEVDAAPAQAPGEQLGGSREAPIEILQRNPDQPRRTFREEDLEDLSNSIREKGVLQPILVRPSPDTAGEYQIVAGERAWRAAQRAGLKTVPIMVRELDDLAVLEIGIIENVQRADLNVLEEALSYKVLMEKFERTQENIAQTIGKSXSHVANXMRLLXLPDEVQSYLVSGELTAXHARAIAAAADPVALAKQIIEGGLSVRETEALARKAPNLSAGKSKGGRPPRVKDTDTQALESDLSSVLGLDVSIDHRGSTGTLTITYATLEQLDDLCNRLTRGI

Variants of: B1
Test: one-hybrid fitness for binding parS DNA (scaled: cognate 1, non-cognate 0); higher = stronger binding
Conditions: with parS DNA site
Method in brief: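 Values were rescaled so that cognate is 1 and non-cognate is 0. Each is a fitness, the log change in a variant's read ratio to wild type from Illumina reads of plasmids before and after selection, with three replicate libraries pooled and variants under 10 reads dropped. Selection of the Caulobacter ParB libraries, four specificity codons randomised, used E. coli USO with a HIS3 reporter, site 19 bp from the promoter, on M9-minus-histidine with 0.1 mM IPTG and 5 mM 3-AT for 48 hours at 37°C.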

Variant | one-hybrid fitness for binding parS DNA
VRGV | ≤ 0.2
STVL | ≤ 0.2
ELAH | ≤ 0.2
HCSL | ≤ 0.2
ISYK | ≤ 0.2
VLPY | ≤ 0.2
RWQL | ≤ 0.2
AQGS | ≤ 0.2
VRSM | ≤ 0.2
NWLG | ≤ 0.2
MFTE | ≤ 0.2
CCVS | ≤ 0.2
WRGW | ≤ 0.2
QCNM | ≤ 0.2
VNPA | ≤ 0.2
NCLY | ≤ 0.2
PTYW | ≤ 0.2
ICPL | ≤ 0.2
RQAQ | ≤ 0.2
GCFT | ≤ 0.2
PQYI | ≤ 0.2
IMVS | ≤ 0.2
RLVD | ≤ 0.2
FAWT | ≤ 0.2
NNHG | ≤ 0.2
NGLK | ≤ 0.2

Variant | one-hybrid fitness for binding parS DNA
VYMM | ≤ 0.2
AFCT | ≤ 0.2
LERC | ≤ 0.2
QELY | ≤ 0.2
LQTV | ≤ 0.2
LSMI | ≤ 0.2
RQFW | ≤ 0.2
SPWL | ≤ 0.2
YRAD | ≤ 0.2
YPAL | ≤ 0.2
IPHT | ≤ 0.2
PVKF | ≤ 0.2
DGLG | ≤ 0.2
VIIF | ≤ 0.2
NRSY | ≤ 0.2
EYDS | ≤ 0.2
GWLW | ≤ 0.2
MIRG | ≤ 0.2
VTRA | ≤ 0.2
ASRW | ≤ 0.2
IRKE | ≤ 0.2
KGQM | ≤ 0.2
NGEC | ≤ 0.2
MSSK | ≤ 0.2
LTGI | ≤ 0.2
ELIG | ≤ 0.2

Variant | one-hybrid fitness for binding parS DNA
PPNR | ≤ 0.2
AHSC | ≤ 0.2
SSAS | ≤ 0.2
QGNV | ≤ 0.2
VVNV | ≤ 0.2
SWRE | ≤ 0.2
AVEY | ≤ 0.2
LYCD | ≤ 0.2
KNSV | ≤ 0.2
KEFG | ≤ 0.2
LWPM | ≤ 0.2
QKPT | ≤ 0.2
SIKR | ≤ 0.2
RATN | 0.436
ANQC | ≤ 0.2
TQIL | ≤ 0.2
FDPE | ≤ 0.2
HFLG | ≤ 0.2
GPMT | ≤ 0.2
QFRT | ≤ 0.2
SSGF | ≤ 0.2
SITR | ≤ 0.2
KKFS | ≤ 0.2
RRAG | 0.738
ESIC | ≤ 0.2
VWQC | ≤ 0.2

Variant | one-hybrid fitness for binding parS DNA
MAHE | ≤ 0.2
INRC | ≤ 0.2
QRRW | ≤ 0.2
AERF | ≤ 0.2
TTPQ | ≤ 0.2
LYCH | ≤ 0.2
NRDS | ≤ 0.2
GYGR | ≤ 0.2
HPSV | ≤ 0.2
QNIR | ≤ 0.2
CKPI | ≤ 0.2
KNGG | ≤ 0.2
MTRR | ≤ 0.2
KHSV | ≤ 0.2
RAPH | ≤ 0.2
SGLG | ≤ 0.2
RKYD | ≤ 0.2
RKRI | ≤ 0.2
HTGG | ≤ 0.2
PPKG | ≤ 0.2
DGQV | ≤ 0.2
KPLT | ≤ 0.2
ANVR | ≤ 0.2
QQQN | ≤ 0.2
GWHG | ≤ 0.2
GYCS | ≤ 0.2

Variant | one-hybrid fitness for binding parS DNA
YKRV | ≤ 0.2
KVQR | ≤ 0.2
LCQT | ≤ 0.2
FAPW | ≤ 0.2
SMCR | ≤ 0.2
THLA | ≤ 0.2
GNYT | ≤ 0.2
TTSC | ≤ 0.2
PALT | ≤ 0.2
IFVS | ≤ 0.2
RRYM | 0.206
RDPV | ≤ 0.2
SAQS | ≤ 0.2
RGDP | ≤ 0.2
FHFS | ≤ 0.2
WYFL | ≤ 0.2
LWQG | ≤ 0.2
DEKS | ≤ 0.2
DKMS | ≤ 0.2
AVPS | ≤ 0.2
SHDT | ≤ 0.2
SGLF | ≤ 0.2
SKLY | ≤ 0.2
ADNY | ≤ 0.2
RCWL | 0.209
LLID | ≤ 0.2

Variant | one-hybrid fitness for binding parS DNA
AGEG | ≤ 0.2
DRRH | ≤ 0.2
PHIH | ≤ 0.2
TPSG | ≤ 0.2
GHVR | ≤ 0.2
DQFG | ≤ 0.2
ACSG | ≤ 0.2
HPIR | ≤ 0.2
SKAL | ≤ 0.2
FHLG | ≤ 0.2
PEPV | ≤ 0.2
VDPE | ≤ 0.2
CVVG | ≤ 0.2
PQQI | ≤ 0.2
YDKE | 0.269
THFP | 0.201
QGDV | ≤ 0.2
KDVR | ≤ 0.2
RKLI | ≤ 0.2
LSVA | ≤ 0.2
EATG | ≤ 0.2
WLLY | ≤ 0.2
HRTR | ≤ 0.2
